Test results published in the supplement of paper PMC11369174, “Proteome-scale characterisation of motif-based interactome rewiring by disease mutations” (Molecular Systems Biology, 2024).
The other results are listed elsewhere or left out. The data scatter; read single values as rough.

Tests used:
Assay in all cases: mutation enrichment score (mutant vs wild-type peptide binding to bait); baits are purified protein domains named by gene / domain / UniProt id / residues; peptides come from disordered regions of human proteins; higher = mutation enhances binding relative to wild type
[1] = biological target: Intersectin-1_SH3_2_Q15811_913_971; settings: wild-type window: …
[2] = biological target: Src_SH3__P12931_87_144; settings: wild-type window: …
[3] = biological target: KPNA4_Arm__O00629_68_487; settings: wild-type window: …
Chain of KPNA4_Arm__O00629_68_487 (chain, as listed by the source): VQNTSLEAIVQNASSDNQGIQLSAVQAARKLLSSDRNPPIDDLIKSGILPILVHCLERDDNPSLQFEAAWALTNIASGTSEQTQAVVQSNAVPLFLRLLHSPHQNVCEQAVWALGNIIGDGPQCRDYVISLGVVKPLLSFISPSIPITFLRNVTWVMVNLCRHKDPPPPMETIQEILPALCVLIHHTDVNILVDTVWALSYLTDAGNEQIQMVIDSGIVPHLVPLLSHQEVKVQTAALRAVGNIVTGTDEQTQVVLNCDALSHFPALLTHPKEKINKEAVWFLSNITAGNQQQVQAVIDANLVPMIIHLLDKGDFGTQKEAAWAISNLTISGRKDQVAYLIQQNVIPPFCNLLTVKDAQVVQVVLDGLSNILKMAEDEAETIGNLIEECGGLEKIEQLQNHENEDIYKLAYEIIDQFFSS

[4] = biological target: Intersectin-1_SH3_5_Q15811_1155_1214; settings: number of wild-type / mutant comparisons summed (bounds the score): 6; paper call: no_effect; wild-type window: …
[5] = biological target: Intersectin-1_SH3_3_Q15811_1002_1060; settings: wild-type window: …
[6] = biological target: T1, SIN3A_PAH__Q96ST3_295_383; settings: number of wild-type / mutant comparisons summed (bounds the score): 5; paper call: no_effect; wild-type window: …
T1 chain: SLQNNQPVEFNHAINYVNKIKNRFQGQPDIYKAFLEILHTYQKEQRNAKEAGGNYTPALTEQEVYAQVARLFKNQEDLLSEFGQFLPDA

[7] = biological target: Intersectin-1_SH3_1_Q15811_740_806; settings: number of wild-type / mutant comparisons summed (bounds the score): 12; paper call: enhanced; wild-type window: …
[8] = biological target: PDCD6IP_Alix-V-domain__Q8WUM4_360_702; settings: number of wild-type / mutant comparisons summed (bounds the score): 10; paper call: enhanced; wild-type window: …
[9] = biological target: T2, PIK3R1_SH3_1_P27986_6_78; settings: number of wild-type / mutant comparisons summed (bounds the score): 27; paper call: enhanced; wild-type window: …
T2 chain: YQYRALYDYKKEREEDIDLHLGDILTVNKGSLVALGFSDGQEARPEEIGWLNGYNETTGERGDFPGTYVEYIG

[10] = biological target: NCK1_SH3_1_P16333_5_60; settings: number of wild-type / mutant comparisons summed (bounds the score): 12; paper call: enhanced; wild-type window: …
[11] = biological target: OXSR1___O95747_434_527; settings: number of wild-type / mutant comparisons summed (bounds the score): 12; paper call: no_effect; wild-type window: …
[12] = number of wild-type / mutant comparisons summed (bounds the score): 12, paper call: no_effect
[13] = number of wild-type / mutant comparisons summed (bounds the score): 18, paper call: diminished
[14] = number of wild-type / mutant comparisons summed (bounds the score): 6, paper call: no_effect
[15] = number of wild-type / mutant comparisons summed (bounds the score): 9, paper call: diminished
[16] = number of wild-type / mutant comparisons summed (bounds the score): 6, paper call: enhanced
[17] = number of wild-type / mutant comparisons summed (bounds the score): 12, paper call: enhanced

## VGEHGLGQAPGHLSGLSVPCHLPSPPAGTLTCELKSCPYCT [P684H P684H]
[1]; [12]
  mutation enrichment score: -4
[2]; [13]
  mutation enrichment score: -11

## VGEHGLGQAPGHLSGLSVPCRLPSPPAGTLTCELKSCPYCT [P684R P684R]
[1]; [12]
  mutation enrichment score: -4
[3]; number of wild-type / mutant comparisons summed (bounds the score): 27, paper call: no_effect
  mutation enrichment score: -5
[2]; [13]
  mutation enrichment score: -11

## LSTLALLYGPKIVPRELAEARGVVMSFYVCLGLTLGSACST [T449R T449R]
[4]
  mutation enrichment score: 1.7

## MAPPSEETPLIPQRSCSLLSREAGALHV [T8R T8R]
[5]; [14]
  mutation enrichment score: 4

## PAASTAKPPPLPRSNTVASFFSLYQSSCQGQLHRSVSWADS [S1276F S1276F]
[5]; [14]
  mutation enrichment score: -3
[2]; [14]
  mutation enrichment score: -2

## VGSPQPSSSGGEKRRWNEEPSESPAQVQQESSQAGPPSEGA [W269S W269S]
[3]; [15]
  mutation enrichment score: -6

## SDKPQDFQIRVQVIEGRQLPEVNIKPVVKVTAAGQTKRTRI [G234E G234E]
[5]; [16]
  mutation enrichment score: 6
[2]; [16]
  mutation enrichment score: 6

## DAQGEEMKEEFETYADALWWVLITLATIGYGDKTPKTWEGR [G310V G310V]
[1]; [14]
  mutation enrichment score: 1
[6]
  mutation enrichment score: 1

## ETTEPVKVSEPPLPPGRVTLADVTRNTATIKWEKPESDGGS [V26232A V26232A]
[5]; [12]
  mutation enrichment score: 0
[2]; [14]
  mutation enrichment score: -0.82

## ESEPSEPSDPVLCREKLYPPLPPRWLEVINITKNTADLKWT [S15012L S15012L]
[7]
  mutation enrichment score: 12
[5]; [17]
  mutation enrichment score: 10
[8]
  mutation enrichment score: 9
[9]
  mutation enrichment score: 19
[2]; [17]
  mutation enrichment score: 9

## QRASYAAGPASNYADPYRQLPYCPSVESPYSKSGPALPPEG [Q507P Q507P]
[5]; [12]
  mutation enrichment score: 3
[2]; [17]
  mutation enrichment score: 7

## PKTDDSFSDVDCHSNQEDTGYKFRVLPQPTNLATPNTKRFK [C560Y C560Y]
[5]; [12]
  mutation enrichment score: 2
[2]; [17]
  mutation enrichment score: 6

## GASLVLQVSYTPLPGAVPLFLPPTPLEPSPTLPDLDVVADT [P134L P134L]
[1]; [17]
  mutation enrichment score: 8.3
[10]
  mutation enrichment score: 7.5
[11]
  mutation enrichment score: 0
[2]; [17]
  mutation enrichment score: 7

## EGKMDDEDPLVPGRDRGQELGVVLKVLDPSHHDIALAFYET [R638G R638G]
[5]; [14]
  mutation enrichment score: -2
[4]
  mutation enrichment score: -5

## ESAEEAWGTEEAPAPAPARSVLQLRLAESQARLDHDVAAAV [L108V L108V]
[4]
  mutation enrichment score: -2

## EEEDEEHSGNDSDGSEPSEKCTRLEEEIVEQTMRRRQRREW [R157C R157C]
[3]; [15]
  mutation enrichment score: -7

## VPEVDAQGEEMKEEFETYADVLWWGLITLATIGYGDKTPKT [A306V A306V]
[1]; [14]
  mutation enrichment score: 0
[3]; number of wild-type / mutant comparisons summed (bounds the score): 9, paper call: no_effect
  mutation enrichment score: 1

## HIRYNPLQDEWVLVSAHRMKLPWQGQVEPQLLKTVPRHDPL [R51L R51L]
[3]; [15]
  mutation enrichment score: -6

## MCSLGLFPPPPPRGQVTLYEKNNELVTGSSYESPP [Q15K Q15K]
[5]; [14]
  mutation enrichment score: -2.9
[4]
  mutation enrichment score: -4.8
[2]; [14]
  mutation enrichment score: -0.43
